The target in experiment [1] is wild-type C3d, recombinant (residues 996-1306 of human C3) (human) (UniProt P01024). Briefly: ELISA; plates coated overnight at 4°C with 14.1 pmols of wild-type or mutant C3d or 5.5 pmols of C3b in 50 mM sodium bicarbonate pH 8.8; blocked with 1% BSA; wild-type or mutant CFHR1 at 1.04-0.008 μM in DPBS, one hour, room temperature; detected with HRP anti-His6 and ABTS; OD405 normalised to wild-type CFHR1 at 1.04 μM; both purified.

Chains of the proteins cited; added tags and fusions are not shown. Lines headed by an entry give the natural chain unless they say otherwise; changes in a name come on top. A line that says so, or that is headed by a name, gives the form on record, which may keep a tag or linker. Residues count along the entry.
wild-type C3d, recombinant (residues 996-1306 of human C3) (P01024, residues 996-1306): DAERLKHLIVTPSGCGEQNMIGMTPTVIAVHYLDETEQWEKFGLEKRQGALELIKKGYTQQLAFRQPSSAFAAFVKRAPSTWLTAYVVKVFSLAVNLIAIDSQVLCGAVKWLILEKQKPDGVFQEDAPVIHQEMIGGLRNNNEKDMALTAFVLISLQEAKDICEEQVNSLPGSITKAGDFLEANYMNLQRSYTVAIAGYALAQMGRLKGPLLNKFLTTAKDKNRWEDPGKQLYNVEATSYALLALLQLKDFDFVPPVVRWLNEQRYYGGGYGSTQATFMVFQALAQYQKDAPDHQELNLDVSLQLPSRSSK
C3d P1114L (P01024, form named): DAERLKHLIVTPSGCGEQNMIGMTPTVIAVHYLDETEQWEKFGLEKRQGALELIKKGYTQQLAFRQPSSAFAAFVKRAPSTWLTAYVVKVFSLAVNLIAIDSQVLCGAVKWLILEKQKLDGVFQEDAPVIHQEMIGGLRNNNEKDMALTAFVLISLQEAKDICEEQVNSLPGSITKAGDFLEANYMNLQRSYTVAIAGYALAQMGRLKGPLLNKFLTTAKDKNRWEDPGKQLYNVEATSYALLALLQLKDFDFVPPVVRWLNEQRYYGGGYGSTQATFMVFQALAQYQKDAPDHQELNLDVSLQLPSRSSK
C3d E1110A/D1115A (P01024, form named): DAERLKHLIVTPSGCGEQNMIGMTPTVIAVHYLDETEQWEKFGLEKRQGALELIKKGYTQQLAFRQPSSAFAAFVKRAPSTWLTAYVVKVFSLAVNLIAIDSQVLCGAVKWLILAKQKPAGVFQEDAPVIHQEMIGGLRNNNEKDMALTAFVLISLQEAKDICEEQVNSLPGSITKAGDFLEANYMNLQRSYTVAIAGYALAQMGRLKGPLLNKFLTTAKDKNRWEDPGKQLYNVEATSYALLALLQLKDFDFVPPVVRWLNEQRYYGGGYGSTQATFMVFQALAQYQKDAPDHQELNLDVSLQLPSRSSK
C3d K1105A (P01024, form named): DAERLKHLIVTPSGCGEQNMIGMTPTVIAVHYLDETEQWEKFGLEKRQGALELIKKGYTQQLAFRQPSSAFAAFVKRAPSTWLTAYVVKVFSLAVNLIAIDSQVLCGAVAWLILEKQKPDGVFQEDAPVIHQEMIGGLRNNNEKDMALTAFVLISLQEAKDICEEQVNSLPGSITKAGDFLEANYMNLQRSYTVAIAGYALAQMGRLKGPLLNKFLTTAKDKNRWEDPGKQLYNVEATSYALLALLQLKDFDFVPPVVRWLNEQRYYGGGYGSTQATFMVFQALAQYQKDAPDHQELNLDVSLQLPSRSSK
complement factor H-related protein 1 (CFHR1), recombinant wild-type (Q03591, residues 19-330): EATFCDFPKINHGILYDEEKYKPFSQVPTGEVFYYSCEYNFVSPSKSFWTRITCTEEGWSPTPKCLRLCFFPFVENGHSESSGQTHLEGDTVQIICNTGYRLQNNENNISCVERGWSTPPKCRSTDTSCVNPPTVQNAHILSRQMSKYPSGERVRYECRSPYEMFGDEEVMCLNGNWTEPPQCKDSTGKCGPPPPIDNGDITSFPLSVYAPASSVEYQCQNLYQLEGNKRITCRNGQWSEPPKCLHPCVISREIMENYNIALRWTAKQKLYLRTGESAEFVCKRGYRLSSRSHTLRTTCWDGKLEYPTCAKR
CFHR1 Mut2 (Q238A/Y241A) (Q03591, form named): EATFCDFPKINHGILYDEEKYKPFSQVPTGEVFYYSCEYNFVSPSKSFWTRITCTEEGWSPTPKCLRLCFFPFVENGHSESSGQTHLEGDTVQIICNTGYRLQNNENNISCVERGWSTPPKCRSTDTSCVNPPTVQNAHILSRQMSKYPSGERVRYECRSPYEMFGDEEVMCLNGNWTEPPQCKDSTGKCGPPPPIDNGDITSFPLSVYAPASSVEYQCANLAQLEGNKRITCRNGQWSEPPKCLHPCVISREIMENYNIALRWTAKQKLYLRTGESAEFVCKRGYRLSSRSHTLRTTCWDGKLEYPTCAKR
CFHR1 Mut1 (N216A/D218A) (Q03591, form named): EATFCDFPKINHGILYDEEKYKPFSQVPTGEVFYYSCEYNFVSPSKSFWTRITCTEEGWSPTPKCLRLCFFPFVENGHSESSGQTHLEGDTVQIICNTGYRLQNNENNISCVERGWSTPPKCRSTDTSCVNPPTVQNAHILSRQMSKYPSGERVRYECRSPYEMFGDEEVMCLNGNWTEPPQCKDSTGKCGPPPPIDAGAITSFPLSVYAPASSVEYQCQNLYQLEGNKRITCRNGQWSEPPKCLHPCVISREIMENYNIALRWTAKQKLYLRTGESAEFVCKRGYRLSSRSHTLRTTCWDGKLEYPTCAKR
CFHR1 Mut3 (Y52S/S54Y/Y57E) (Q03591, form named): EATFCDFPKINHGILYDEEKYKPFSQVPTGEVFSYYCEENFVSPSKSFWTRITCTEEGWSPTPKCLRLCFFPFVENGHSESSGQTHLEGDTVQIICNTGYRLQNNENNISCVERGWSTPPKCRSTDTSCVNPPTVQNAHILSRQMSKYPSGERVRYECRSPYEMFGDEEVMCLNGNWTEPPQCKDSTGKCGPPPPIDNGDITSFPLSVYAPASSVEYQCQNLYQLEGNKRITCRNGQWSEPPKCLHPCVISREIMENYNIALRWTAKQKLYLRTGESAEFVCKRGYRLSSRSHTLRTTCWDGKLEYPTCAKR

For a further experiment, the target named is C3d P1114L (human) (UniProt P01024). Described as above.
In experiment [2] the target is C3d E1110A/D1115A (human) (UniProt P01024). The description is as above.
A further experiment has as its target C3d K1105A (human) (UniProt P01024). The experiment is described as above.
Experiment [3] concerns the target complement component C3c, serum-derived (human) (UniProt P01024). The experiment in a line: ELISA; plates coated overnight at 4°C with 18, 36 and 72 pmols of C3c in 50 mM sodium bicarbonate pH 8.8; blocked with 1% BSA; wild-type CFHR1 at 1.04-0.008 μM in DPBS, one hour, room temperature; HRP anti-His6 and ABTS; both purified.
Experiment [4] addresses CFHR1 Mut3 (Y52S/S54Y/Y57E) (human) (UniProt Q03591). The experiment in a line: SEC; preparative HiPrep 16/60 Sephacryl S200 column in DPBS pH 7.4; both purified.
Experiment [5] concerns the target complement factor H-related protein 1 (CFHR1), recombinant wild-type (human) (UniProt Q03591). The experiment in a line: pull-down; C3d (1.1 nmols) and CFHR1 (0.8 nmols) in DPBS with Heparin Sepharose 6 Fast Flow, 30 minutes, room temperature; each protein alone as control; eluted with DPBS plus 1M NaCl; SDS PAGE, Colloidal Blue stain; both purified.

Results are given in words; binding and its absence hold for the method and conditions named. Some results given as binding are weak or reduced against the parent protein; the word gives no strength.

In the case of “CFHR1 Mut2 (Q238A/Y241A) (from UniProt Q03591 19-330)”, the binding entry in experiment [1] was “no binding (tested: 1.04 μM)”.

Turning to “complement factor H-related protein 1 (CFHR1), recombinant wild-type (from UniProt Q03591 19-330)”, the binding result in experiment [1] is given as “binds”; in the experiment with C3d P1114L (human) it was “no binding (tested: 1.04 μM)”; in experiment [2] it was “no binding (tested: 1.04 μM)”; with C3d K1105A (human) it was “no binding (tested: 1.04 μM)”; in experiment [3] it was “no binding (tested: 0.008 μM -1.04 μM)”.

With “CFHR1 Mut1 (N216A/D218A) (from UniProt Q03591 19-330)”, the binding result in experiment [1] is “no binding (tested: 1.04 μM)”.

Regarding “CFHR1 Mut3 (Y52S/S54Y/Y57E) (from UniProt Q03591 19-330)”, the values for the binding result in experiment [1] and in experiment [4] were “no binding (tested: 1.04 μM)” and “no binding”, respectively.

On to “wild-type C3d, recombinant (residues 996-1306 of human C3) (from UniProt P01024 996-1306) (domain or fragment)”, for which the binding result in experiment [5] was “binds”.

Source of the values: publication PMC5096715.
